Test results taken from paper PMC4336329 (PLoS ONE, 2015).
About 2,200 (0.71%) of roughly 310,000 compounds showed an effect of 50% or more. The effect is printed as a negative number. This is one part of the list.

Target: human ether-à-go-go-related gene (hERG) potassium channel (human, UniProt Q12809)
Test: primary screen, population patch clamp on CHO cells stably expressing hERG

Sequence of human ether-à-go-go-related gene (hERG) potassium channel (Q12809 whole entry, looked up): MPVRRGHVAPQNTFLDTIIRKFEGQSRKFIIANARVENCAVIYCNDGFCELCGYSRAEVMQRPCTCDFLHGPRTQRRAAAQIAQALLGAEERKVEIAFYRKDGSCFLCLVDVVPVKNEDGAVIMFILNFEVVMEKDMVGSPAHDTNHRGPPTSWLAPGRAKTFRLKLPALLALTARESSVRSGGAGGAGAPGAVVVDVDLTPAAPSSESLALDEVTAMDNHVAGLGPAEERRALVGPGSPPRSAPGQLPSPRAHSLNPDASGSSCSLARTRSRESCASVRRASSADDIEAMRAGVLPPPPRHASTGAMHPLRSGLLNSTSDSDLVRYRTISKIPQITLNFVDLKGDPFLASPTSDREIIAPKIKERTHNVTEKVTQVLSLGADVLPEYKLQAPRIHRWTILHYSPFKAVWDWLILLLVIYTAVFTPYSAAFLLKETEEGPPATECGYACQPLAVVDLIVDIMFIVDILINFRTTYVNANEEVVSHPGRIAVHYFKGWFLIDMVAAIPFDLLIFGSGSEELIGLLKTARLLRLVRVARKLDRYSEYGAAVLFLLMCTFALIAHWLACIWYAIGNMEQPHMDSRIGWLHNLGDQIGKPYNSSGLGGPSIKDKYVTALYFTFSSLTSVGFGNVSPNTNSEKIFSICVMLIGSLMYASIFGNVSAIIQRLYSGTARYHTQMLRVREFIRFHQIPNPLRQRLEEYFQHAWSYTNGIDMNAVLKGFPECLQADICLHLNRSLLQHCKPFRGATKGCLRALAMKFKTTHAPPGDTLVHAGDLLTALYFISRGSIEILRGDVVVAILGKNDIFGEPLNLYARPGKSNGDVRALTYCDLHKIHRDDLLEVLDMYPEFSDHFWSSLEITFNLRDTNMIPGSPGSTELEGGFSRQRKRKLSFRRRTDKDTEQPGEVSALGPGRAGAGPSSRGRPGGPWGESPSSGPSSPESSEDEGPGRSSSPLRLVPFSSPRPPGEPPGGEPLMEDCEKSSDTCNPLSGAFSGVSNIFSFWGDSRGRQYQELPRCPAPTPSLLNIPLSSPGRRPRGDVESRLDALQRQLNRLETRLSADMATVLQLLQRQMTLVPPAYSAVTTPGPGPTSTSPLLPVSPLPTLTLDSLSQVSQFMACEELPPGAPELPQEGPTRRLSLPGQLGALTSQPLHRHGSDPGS

Structure (SMILES)	hERG current change (%, negative = inhibition) at 1uM
Cc1cnc(C(=O)Nc2cccc3ncccc23)cn1	10.5%
CC1(C(=O)N/N=C/c2ccc3c(c2)OCO3)CC1(Br)Br (stereo not drawn)	-17%
CCSc1nnc(NC(=O)Cc2cccc(OC)c2)s1	6.82%
O=C(Nc1ccccc1)Nc1ccc2ocnc2c1	5.94%
Cc1ccc(NC(=O)CCS(=O)(=O)c2cccc3nonc23)cc1Cl	9.13%
CSc1ccccc1C(=O)N1CCc2ccccc2C1	-4.94%
CC(C)(C)c1ccc2c(c1)N(CC(=O)N1CCOCC1)C(=O)CO2	12.4%
O=C(CCCCCCCCC(=O)N/N=C/c1ccco1)N/N=C/c1ccco1	-4.1%
CCc1nnc(NC(=O)CCC(=O)N2CCN(Cc3ccc(F)cc3)CC2)s1	12.9%
Cl.OCCNCc1ccc(OCc2ccc(Cl)cc2Cl)cc1	4.59%
O=C(CCN1CCc2ccccc2C1)Nc1ccccc1F	5.04%
Cc1cc(CN2C(=O)c3ccccc3C2=O)no1	4.9%
CCOC(=O)c1[nH]c(C)c(C(=O)c2ccc(C)cc2)c1C	7.26%
COc1cc(-c2nc(-c3ccc4c(c3)-c3ccccc3S4(=O)=O)c(-c3ccccc3)[nH]2)cc(OC)c1O	4.68%
COc1ccc(NC(C)c2cc(Cl)ccc2O)cc1 (stereo not drawn)	12.6%
CCOC(=O)C1C2C=CC(CC2)N1c1ccccc1 (stereo not drawn)	5.82%
CCC(=O)Nc1cc(C)c(OC)c(C)c1	11.9%
COc1ccc(CCNC(=S)Nc2cc(C)ccc2C)cc1	2.04%
C/C(=C/Cc1c(O)cc2oc(C)cc(=O)c2c1O)COC1OC(CO)C(O)C(O)C1O (stereo not drawn)	6.89%
O=C(Nc1cccc(-c2cccc(F)c2)c1)C1CCN(Cc2ccc(CO)o2)CC1	-13.1%
Cc1cc(C=C(C#N)C#N)ccc1N1CCCC1	-68.6%
COc1cccc(CC(=O)NNC(=O)c2c(-c3ccccc3)noc2C)c1	-15.8%
COC(=O)c1cc(N2C(=O)C3C(C2=O)C2(C)C=CC3(C)O2)ccc1Cl (stereo not drawn)	5.73%

Structure (SMILES)	hERG current change (%, negative = inhibition) at 1uM
O=C(/C=C/c1ccccc1)N1CCC(c2ccccc2)C1 (stereo not drawn)	-6.51%
COC(=O)c1cc(OC)cc(O)c1C(=O)c1c(O)cc(C)cc1O	15.3%
Cc1ccsc1/C=C1/SC(N2CC(C)OC(C)C2)=NC1=O (stereo not drawn)	7.12%
O=S(=O)(c1ccc(OCC(O)CN2CCN(c3ccccc3O)CC2)cc1)N1CCOCC1 (stereo not drawn)	14.4%
Cc1[nH][nH]c(=O)c1C(c1c(C)[nH][nH]c1=O)c1cn(Cc2ccc(Cl)c(Cl)c2)c2ccccc12	4.37%
CCc1cccc(CC)c1NC(=O)c1ccc(-n2cncn2)nc1	11.5%
O=C(CNC(=O)N1CC(=O)Nc2ccccc21)Nc1ccccc1F	12.4%
O=C(CN1C(=O)CSc2ncccc21)Nc1cccc(Cl)c1	-2.19%
COc1ccc(OCc2nnc(SCC(=O)NC3CC4CCC3C4)o2)cc1 (stereo not drawn)	12.7%
CCOc1cc2[nH]c(=O)n(Cc3ccccc3)c(=O)c2cc1OCC	11.3%
COc1cc(C2NCc3ccccc3-n3cccc32)ccc1O.Cl (stereo not drawn)	3.97%
COc1ccc(-n2c(N)c(Br)c(=O)[nH]c2=O)cc1	-1.01%
CCC(c1nnnn1C1CCCC1)N1CCN(Cc2ccccc2)CC1.Cl (stereo not drawn)	2.81%
O=C(CCC1CCCCC1)NCCS(=O)(=O)N1CCN(c2ccccc2)CC1	12.7%
COc1ccc(NC(=O)c2ccc(-n3cccn3)c([N+](=O)[O-])c2)cc1	4.88%
C#CCOC(=O)Nc1ccc(OCC(F)(F)F)nc1	14.3%
CCC(=O)Nc1nnc(S(=O)(=O)N2CCc3ccccc32)s1	5.4%
[O-]/[N+](=C\C=C\c1ccccc1)c1ccccc1	6.34%
O=C(NCCN1CCN(C(=O)c2cccs2)CC1)C(=O)Nc1ccc(Br)cc1	-44.8%
COC(=O)C1=C(c2cccc3c2S(=O)(=O)c2ccccc2-3)C[C@@H]2CC[C@H]1N2C(=O)N1CCc2cc(OC)c(OC)cc2C1	12.8%
CC(C)OCCCn1c(-c2ccc(Br)cc2)c[nH]c1=S	-12.3%
Cc1ccc(NC(=O)c2c(C(F)(F)F)nn(C)c2SCc2ccc(Cl)cc2)cc1C	11.3%
